Results from PubChem BioAssay AID2313 (Broad Institute, 2010).
About 460 (2.1%) of roughly 22,000 compounds were called active. This list was built around the results that the source calls inconclusive (neither active nor inactive); the mix of calls is not that of the screen.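 The calls were made as follows: active = mean inhibition across valid replicates above about 65% (limit read from the data); inconclusive = mean under the limit, yet half or more replicates past it; inactive = the rest.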

Assay: Shh-driven Gli reporter inhibition – luminescence, Shh-LIGHT2 cells, Gli-luciferase, primary screen (AID 2313);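 also: pathway switched on by Shh-conditioned medium diluted 1 in 25 in low serum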
Conditions: 30 h, stronger effect = higher value
In the case of OCCN1CCN(CC/C=C2/c3ccccc3Sc3ccc(C(F)(F)F)cc32)CC1, the inhibition is reported as inconclusive: 64.2%.
For C[C@H](CO)N1C[C@H](C)[C@@H](CN(C)S(=O)(=O)c2ccc(Cl)cc2)Oc2c(NC(=O)c3cnccn3)cccc2C1=O, the inhibition was inconclusive: 29.8%.
With C/C1=C/[C@H]2OC(=O)[C@@H](C)[C@@H]2[C@H](O)C/C(CO)=C\CC1 the inhibition was inconclusive: 30.1%.
With C[C@H]1CN([C@@H](C)CO)C(=O)Cc2cc(NC(=O)NC3CCCCC3)ccc2O[C@H]1CN(C)Cc1ccccc1 the inhibition was inconclusive: 31.6%.
With C[C@@H]1CN([C@H](C)CO)C(=O)c2cccc(NC(=O)Nc3cccc4ccccc34)c2O[C@H]1CN(C)S(=O)(=O)c1cccs1 the inhibition was inconclusive: 52.8%.
With C[C@@H]1CN([C@H](C)CO)C(=O)c2cc(NS(=O)(=O)c3ccc(F)cc3)ccc2O[C@@H]1CN(C)Cc1ccc(C(F)(F)F)cc1 the inhibition was inactive: 14.2%.
In the case of CC(C)(C)C1CCC2(CC1)C(C#N)C2(C#N)C(=O)c1ccccc1 (configuration not stated), the inhibition is reported as inconclusive: 59.7%.
In the case of Cc1cc(C)cc(CC(C(=O)O)C(C)C(=O)NCc2ccccc2)c1 (configuration not stated), the inhibition is reported as inactive: -16.7%.
For Cc1ccc(S(=O)(=O)Nc2ccc3c(c2)C(=O)N([C@@H](C)CO)C[C@H](C)[C@H](CN(C)S(=O)(=O)c2ccc(Cl)cc2)O3)cc1, the inhibition was inconclusive: 60%.
With CN1CCC(=C2c3ccccc3C=Cc3ccccc32)CC1 the inhibition was inconclusive: 57.7%.
With C[C@H]1CN([C@@H](C)CO)C(=O)Cc2cc(NC(=O)Nc3ccc(C(F)(F)F)cc3)ccc2O[C@H]1CN(C)S(=O)(=O)c1ccc(Cl)cc1 the inhibition was inconclusive: 55.6%.
For C[C@H](CO)N1C[C@H](C)[C@H](CN(C)Cc2ccc(Cl)c(Cl)c2)Oc2c(NS(C)(=O)=O)cccc2C1=O, the inhibition was inconclusive: 35.1%.
In the case of Cc1ccc(S(=O)(=O)N(C)C[C@@H]2OCCCC[C@@H](C)Oc3ccc(NC(=O)c4ccncc4)cc3C(=O)N([C@H](C)CO)C[C@@H]2C)cc1, the inhibition is reported as inactive: -8.04%.
With Cc1ccc(S(=O)(=O)N(C)C[C@@H]2Oc3c(NC(=O)NC4CCCCC4)cccc3C(=O)N([C@@H](C)CO)C[C@H]2C)cc1 the inhibition was inactive: -54.3%.
With C[C@H](CO)N1C[C@H](C)[C@@H](CN(C)S(=O)(=O)c2ccccc2)Oc2c(NC(=O)c3ccc(-c4nccs4)cc3)cccc2C1=O the inhibition was inconclusive: 52.1%.
For Cc1noc(C)c1NC(=O)N(C)C[C@H]1Oc2ccc(NS(=O)(=O)c3c(C)noc3C)cc2CC(=O)N([C@H](C)CO)C[C@H]1C, the inhibition was inactive: -22.8%.
With C[C@H](CO)N1C[C@H](C)[C@@H](CN(C)Cc2ccc(Oc3ccccc3)cc2)Oc2c(NC(=O)c3ccc(-c4nccs4)cc3)cccc2C1=O the inhibition was inactive: -4.39%.
In the case of CC1OC(OC2C(O[C@H]3OC[C@](O)(CO)[C@H]3O)COC(O[C@@H]3[C@@H](O)[C@@H](O)[C@H](OC4C(OC(=O)[C@]56CCC(C)(C)CC5C5=CCC7[C@@]8(C)C[C@H](O)[C@H](OC9OC(CO)C(O)C(O)C9O)[C@@](C)(CO)C8[C@H](O)C[C@@]7(C)[C@]5(C)CC6)OCC(O)C4O)O[C@H]3C)C2O)C(O)C(O)C1O (some centres not stated), the inhibition is reported as inactive: 4.27%.
In the case of Cc1cc(NC(=O)c2ccc(N)cc2)c(N)cc1N, the inhibition is reported as inconclusive: 64%.
For C[C@@H]1CCCCO[C@H](CN(C)Cc2ccc(C(F)(F)F)cc2)[C@@H](C)CN([C@H](C)CO)C(=O)c2cc(NC(=O)NC3CCCCC3)ccc2O1, the inhibition was inactive: 39.9%.
For C[C@H]1CN([C@@H](C)CO)C(=O)Cc2cc(N(C)C)ccc2O[C@@H]1CN(C)CC1CC1, the inhibition was inconclusive: 23.4%.
With CCOC(=O)CC(Sc1ccccc1N)c1cc(OC)c(OC)c(OC)c1 (configuration not stated) the inhibition was inactive: 8.79%.
For CCCCCCCCC/C=C/C(=O)CCc1ccc(O)c(OC)c1, the inhibition was inactive: 42.6%.
With COC(=O)C1=C(C)NC(C)=C([N+](=O)[O-])C1c1ccccc1C(F)(F)F (configuration not stated) the inhibition was inconclusive: 64.3%.
With C[C@H](CO)N1C[C@H](C)[C@@H](CN(C)S(=O)(=O)c2ccc(F)cc2)Oc2c(NC(=O)c3ccncc3)cccc2C1=O the inhibition was inconclusive: 57.4%.
In the case of Nc1nc(Cl)nc2c1ncn2C1C[C@@H](O)C(CO)O1 (some centres not stated), the inhibition is reported as active: 71.8%.
In the case of COc1ccc(NC(=O)Nc2ccc3c(c2)C(=O)N([C@H](C)CO)C[C@H](C)[C@H](CN(C)Cc2ccc(C(=O)O)cc2)OCCCC[C@@H](C)O3)cc1, the inhibition is reported as inconclusive: 22%.
In the case of C[C@@H]1CN([C@H](C)CO)C(=O)c2cc(NC(=O)Nc3ccc4c(c3)OCO4)ccc2O[C@H]1CN(C)Cc1ccc(-c2ccccc2)cc1, the inhibition is reported as inconclusive: 41.4%.
In the case of C[C@H]1CN([C@@H](C)CO)C(=O)Cc2cc(NC(=O)Nc3ccc(F)cc3)ccc2O[C@H]1CN(C)Cc1ccncc1, the inhibition is reported as inconclusive: 54%.
In the case of Cc1ccc(S(=O)(=O)Nc2ccc3c(c2)CC(=O)N([C@@H](C)CO)C[C@H](C)[C@H](CN(C)S(=O)(=O)c2ccccc2)O3)cc1, the inhibition is reported as inconclusive: 42.5%.
For C[C@H]1CN([C@@H](C)CO)C(=O)c2cccc(NC(=O)Nc3ccc4c(c3)OCO4)c2O[C@H]1CN(C)S(=O)(=O)c1ccc(Cl)cc1, the inhibition was active: 107%.
With C[C@@H]1CN([C@@H](C)CO)C(=O)c2cccc(NC(=O)c3ccc(-c4nccs4)cc3)c2O[C@@H]1CN(C)S(=O)(=O)c1ccccc1 the inhibition was inconclusive: 40.9%.
For COc1ccc(NC(=O)Nc2ccc3c(c2)CC(=O)N([C@H](C)CO)C[C@@H](C)[C@@H](CN(C)Cc2ccc(C(F)(F)F)cc2)O3)cc1, the inhibition was inconclusive: 47.9%.
In the case of O=C(CSc1ccccn1)c1ccc(OCc2ccc(F)cc2)cc1, the inhibition is reported as inconclusive: 51.1%.
For CC(C)=CCc1c(O)cc2oc3c(CC=C(C)C)c(O)c(O)c(CC=C(C)C)c3c(=O)c2c1O, the inhibition was active: 103%.
With C[C@@H]1CN([C@H](C)CO)C(=O)c2cccc(NC(=O)Nc3ccc(C(F)(F)F)cc3)c2O[C@@H]1CN(C)S(=O)(=O)c1cccs1 the inhibition was inconclusive: 34.3%.
In the case of Cc1cccc(Cl)c1NC(=S)NC(Cc1ccccc1)c1ccccc1 (configuration not stated), the inhibition is reported as inconclusive: 56.4%.
